According to PubChem BioAssay AID720536 (National Center for Advancing Translational Sciences (NCATS), 2013):
In all, about 1,600 compounds went through this assay and about 650 (41%) were called active. The set was probably picked from earlier hits. The shares of active, inactive and inconclusive entries below differ from those in the screen. Calls come from the whole dose curve; as a rule, active = well fitted inhibition curve with a large enough effect; inconclusive = small, poorly fitted or top-dose-only effect; inactive = no such curve, though single readings can be large or run the other way. Potencies of inconclusive entries are left out as doubtful fits.

Assay: qHTS for Inhibitors of TGF-b: CCL64 Cells Orthogonal Assay for Cherry Picks; note: nearly all actives have a fitted effect of over 65% in size;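 for activity, negative = inhibition: 0% = stimulated DMSO wells and full inhibition = unstimulated wells without TGF-beta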
Conditions: CCL64 CAGA-GFP reporter, TGF-b stimulated, GFP fluorescence, 18 h; activity, negative = inhibition: at 46.1 µM (top of the series)
Outline: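 CCL64 cells carrying a CAGA-GFP reporter (1000/well, DMEM with 1% FBS) were pre-incubated 2 h at 37 degrees C, given compound, then stimulated with 500 pg/mL TGF-beta for 18 h. Per-cell GFP fluorescence was summed per well.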
Potency is the fitted concentration of half-maximal effect; tags give direction and shape of the fitted curve.

Structure (SMILES)	Potency	activity, negative = inhibition
NC(=S)N=Nc1c(O)n(CCCl)c2ccc(Br)cc12	inconclusive [inhibitor, single point]	–
COc1ccc(CC(=O)Nc2ccccc2NC(=O)c2ccco2)cc1OC	–	inactive: -5.76%
CCOC(=O)Nc1nc(-c2ccccc2)c(C(=O)c2ccc(Cl)cc2)s1	active: 9.2 µM	–
C[C@]12c3[nH]c4cc(-c5ccco5)ccc4c3CCN1C(=O)[C@@H](CC(=O)NCc1cccc(C(F)(F)F)c1)C[C@@H]2C(=O)N1CCCCC1	inconclusive [inhibitor, single point]	–
O=C(C1=C[C@@H](C2CCCCC2)C[C@@H](OCc2ccc(CO)cc2)O1)N1CCN(Cc2ccc3c(c2)OCO3)CC1	inconclusive [inhibitor, single point]	–
O=C(CCC(=O)c1ccc(F)cc1)Nc1cccc(S(=O)(=O)Nc2cccc(Cl)c2)c1	inconclusive [inhibitor, single point]	–
COc1ccc(Nc2nnc(-c3ccc(N4CCOCC4)c([N+](=O)[O-])c3)c3ccccc23)cc1	inconclusive [inhibitor, partial curve]	–
O=C1C=CC2(C=C1)O[C@H](Cc1ccccc1)[C@@H](Cc1ccccc1)O2	active: 1.03 µM	–
CC1CCc2c(nc3ncnn3c2Nc2ccc(OC(F)(F)F)cc2)C1 (stereo unspecified)	–	inactive: 22.3%
COc1ccc(-c2[nH]c(-c3cc(OC)c4c(c3)OCO4)nc2-c2ccccc2)cc1	inconclusive [inhibitor, partial curve, poor fit]	–
CN(Cc1ccccc1)C(=O)c1[nH]cnc1C(=O)Nc1cccc(Cl)c1	–	inactive: -7.69%
COc1ccccc1-n1cc([C@@H]2C[C@H]3CN(c4ccccc4)C(=O)[C@]34CCCN24)cn1	active: 5.17 µM	–
CCCCOc1ccc(CSCCNC(=S)Nc2ccccc2)cc1	–	inactive: 8.67%
CC(C)C[C@@H](CN1CCCC1CN1C(=S)NC[C@@H]1Cc1ccc(O)cc1)N1C[C@H](Cc2ccccc2)N(CC2CCCCCC2)C1=S (stereo partly specified)	active: 2.06 µM	–
Cc1cccc(CCN2C(Nc3ccccc3)=NC[C@@H]2CC(C)C)c1	inconclusive [inhibitor, single point]	–
C[C@@]12CCC=C[C@H]1[C@H](c1ccccc1Br)N(Cc1ccccc1)C2=O	inconclusive [inhibitor, single point]	–
CCOC(=O)C1=CCN(S(=O)(=O)c2ccccc2F)C1c1cccc(Cl)c1 (stereo unspecified)	inconclusive [inhibitor, single point]	–
O=C(Nc1nc(-c2ccccn2)cs1)c1ccc([N+](=O)[O-])o1	inconclusive [inhibitor, partial curve, poor fit]	–
Cc1ccc(C)c(S(=O)(=O)N2CCN(CC(=O)Nc3ccc([N+](=O)[O-])cc3)CC2)c1	–	inactive: -18.2%
Cc1cc(OCCCC(=O)Nc2cccc(-n3cnnn3)c2)ccc1Cl	–	inactive: -2.93%
Cc1c(C(=O)N/N=C/c2ccc(N(C)C)cc2)[nH]c2ccc(Cl)cc12	inconclusive [inhibitor, partial curve, poor fit]	–
CCNc1nc(N)c(C(=O)c2ccc(Cl)s2)s1	inconclusive [inhibitor, single point]	–

Structure (SMILES)	Potency	activity, negative = inhibition
O=c1cc(NS(=O)(=O)c2ccccc2)nc(SCc2ccc(Cl)cc2)[nH]1	active: 18.4 µM	–
CCOC(=O)C1=C[C@@H](C(C)(C)C)N(S(=O)(=O)c2ccc(OC)cc2)[C@H]1c1ccccc1	–	inactive: -29.2%
C=CCNc1ncnc2c1[nH]c1ccc(C)cc12	inconclusive [inhibitor, full curve, poor fit]	–
Cc1ccc(Cc2c(-c3cccc(Cl)c3)nc3ccc(C)cn23)cc1	inconclusive [inhibitor, single point]	–
Cc1ccc(NCCC(=O)c2cccc([N+](=O)[O-])c2)cc1	inconclusive [inhibitor, single point]	–
CCOC(=O)c1cc([N+](=O)[O-])sc1NC(=O)c1ccc(S(=O)(=O)N2CC3(C)CC2CC(C)(C)C3)cc1 (stereo unspecified)	inconclusive [inhibitor, partial curve, poor fit]	–
O=C1C(Cl)=C(Nc2ccccc2)C(=O)c2ccccc21	inconclusive [inhibitor, partial curve, poor fit]	–
O=C(Nc1ccc(S(=O)(=O)N2CCOCC2)cc1)c1ccc([N+](=O)[O-])s1	–	inactive: -16.9%
Cc1ccc(C(NC(=O)C2CCCCC2)c2c(O)ccc3ccccc23)cc1 (stereo unspecified)	active: 23.1 µM	–
CCC(C)Sc1ccc([C@@H]2[C@@H]3C(=O)N(CC)C(=O)[C@@H]3[C@]3(C(=O)OC)CCCCN23)cc1OC (stereo partly specified)	–	inactive: -23.2%
CC1(C(=O)NCC2CCCCC2)CCN1C(=O)Cc1ccc(-c2ccccc2)cc1 (stereo unspecified)	inconclusive [inhibitor, single point]	–
C[C@H](CO)N1C[C@H](C)[C@@H](CN(C)S(=O)(=O)c2ccc(Cl)cc2)Oc2ccc(NS(=O)(=O)c3ccccc3)cc2CC1=O	inconclusive [inhibitor, single point]	–
O=C(Nc1ccc([N+](=O)[O-])cc1)Nc1ccc(Cl)cc1F	active: 4.11 µM	–
OCC1OC(n2cnc3c(N4CCCC4)ncnc32)C(O)C1O (stereo unspecified)	–	inactive: 1.41%
COc1cc(C(=O)NCC(c2ccc(F)cc2)N2CCOCC2)ccc1OCc1ccccc1Cl (stereo unspecified)	inconclusive [inhibitor, single point]	–
CCCCCCCN(c1ccccc1)[C@@H]1C[C@H]2CCCC(=O)N3CC[C@@H](C1)[C@@H]23	active: 20.6 µM	–
CNC(=S)N/N=C/c1cc(C)n(-c2ccc(Cl)c(Cl)c2)c1C	inconclusive [inhibitor, single point]	–
CCSCCc1nnc(NC(=O)Nc2cccc(C(F)(F)F)c2)s1	active: 7.31 µM	–
O=C(Nc1ccc(F)cc1)c1nc(S(=O)(=O)Cc2ccccc2)ncc1Cl	active: 2.59 µM	–
O=S(=O)(NCC(Nc1ccccc1)c1ccccc1)c1ccc(Cl)cc1 (stereo unspecified)	–	inactive: -1.04%
CCCCN(CC)C(=O)CSc1nc2n[nH]c(C)c2c(=N)n1-c1cccc(C)c1	inconclusive [inhibitor, single point]	–
COc1cc(-c2noc(C)c2/C=C/c2cccc([N+](=O)[O-])c2)cc(OC)c1OC	inconclusive [inhibitor, partial curve, poor fit]	–

Structure (SMILES)	Potency	activity, negative = inhibition
CN(C)c1ncnc2c1ccn2C1OC(CO)C(O)C1O (stereo unspecified)	active: 6.51 µM	–
CCOC(=O)C1=CCN(S(=O)(=O)c2ccc(C)cc2)C1c1cccc(Cl)c1 (stereo unspecified)	–	inactive: -0.0498%
CC(NC(=O)C1CCN(CCOc2ccc(Cl)cc2)CC1)c1cccc2ccccc12 (stereo unspecified)	inconclusive [inhibitor, single point]	–
CCCC(=O)NC(=S)Nc1cccc(Cl)c1N1CCCCC1	inconclusive [inhibitor, single point]	–
COc1ccc(S(=O)(=O)Nc2ccc(F)c(F)c2)cc1Cl	–	inactive: -10.7%
O=C(CCC(=O)N1CCN(S(=O)(=O)c2ccc3ccccc3c2)CC1)Nc1cc(Cl)cc(Cl)c1	–	inactive: -16.4%
CN(C)C(=O)c1cccc(-c2cnc3c(NC=O)cc(-c4ccccc4Cl)cn23)c1	inconclusive [inhibitor, single point]	–
N#C/C(=C\c1ccc(Sc2nc3ccccc3[nH]2)o1)c1ccccc1	inconclusive [inhibitor, single point]	–
COc1ccc(S(=O)(=O)n2nc(-c3ccc(Cl)cc3)cc2N)cc1	inconclusive [inhibitor, single point]	–
CCOC(=O)c1ccc2c(c1)nc(C1CCN(S(=O)(=O)c3cccs3)CC1)n2CC	–	inactive: -9.85%
O=C(Cc1cccc(NC(=O)C2CCCN(C(=O)C3CCCCC3)C2)c1)Nc1cccc(C(=O)N2CCCC2)c1 (stereo unspecified)	–	inactive: -23.6%
COc1cc(C=CC(=O)c2ccccc2)cc(OC)c1OC	active: 16.4 µM	–
Cc1c(C(=O)Oc2cccc3cccnc23)cccc1[N+](=O)[O-]	inconclusive [inhibitor, single point]	–
O=C(NC(c1ccccc1)c1ccc2ccccc2n1)C1CCN(CCOc2ccc(Cl)cc2)CC1 (stereo unspecified)	active: 3.66 µM	–
Cc1ccc(NC(=O)c2nc[nH]c2C(=O)NCCCNC(=O)c2[nH]cnc2C(=O)Nc2ccc(C)cc2)cc1	inconclusive [inhibitor, single point]	–
CN(C)CCNC(=O)c1cccc2[nH]c(-c3ccncc3)nc12	active: 13 µM	–
CCCCCCN1C[C@H](n2cc(-c3ccc(F)cc3)nn2)[C@@H](O)C[C@@H]1c1ccc(Cl)cc1	active: 18.4 µM	–
CCc1nc2ccccc2c(C(=O)OCC(=O)Nc2cccc(S(=O)(=O)NC3=NCCCCC3)c2)c1C	inconclusive [inhibitor, partial curve, poor fit]	–
CCCCn1nnnc1C(c1ccccc1OC(F)(F)F)N1CCN(C/C=C/c2ccccc2)CC1 (stereo unspecified)	inconclusive [inhibitor, single point]	–
C[C@H](NC(=O)c1nc[nH]c1C(=O)NCCCCCNC(=O)OC(C)(C)C)C(=O)OC(C)(C)C	inconclusive [inhibitor, single point]	–
C[C@H](CO)N1C[C@H](C)[C@@H](CN(C)Cc2ccc(Oc3ccccc3)cc2)Oc2c(NC(=O)c3ccncc3)cccc2C1=O	inconclusive [inhibitor, single point]	–
COc1cccc(Cl)c1NC(=O)N1CCN(c2cc(C)nc3ccccc23)CC1	inconclusive [inhibitor, single point]	–
